The list shows a part of the results.
B1: PhoQ; a variant is named by its letters at X, in order, P23837 (parent)
chain: MKKLLRLFFPLSLRVRFLLATAAVVLVLSLAYGMVALIGYSVSFDKTTFRLLRGESNLFYTLAKWENNKLHVELPENIDKQSPTMTLIYDENGQLLWAQRDVPWLMKMIQPDWLKSNGFHEIEADVNDTSLLLSGDHSIQQQLQEVREDDDDAEMTHSVAVNVYPATSRMPKLTIVVVDTIPVELKSSYMVWSWFIYVLSANLLLVIPLLWVAAWWSLRPIEALAKEVRELEEHNRELLNPATTRELTSLVRNLNRLLKSERERYDKYRTTLTDLTHSLKTPLXXLQXXLRSLRSEKMSVSDAEPVMLEQISRISQQIGYYLHRASMRGGTLLSRELHPVAPLLDNLTSALNKVYQRKGVNISLDISPEISFVGEQNDFVEVMGNVLDNACKYCLEFVEISARQTDEHLYIVVEDDGPGIPLSKREVIFDRGQRVDTLRPGQGVGLAVAREITEQYEGKIVAGESMLGGARMEVIFGRQHSAPKDE

Variants of: B1
Assay: enrichment ratio after two sorts for PhoP signalling (ratio (wild type AVST 3.29)); higher = more functional
Conditions: with PhoP (E. coli)
For WWWS, the enrichment ratio was no more than 0.25. EKAF gave an enrichment ratio of no more than 0.25. In the case of IQEP, the enrichment ratio is reported as no more than 0.25. With ECLH the enrichment ratio was no more than 0.25. LLSS was tested, and the enrichment ratio was no more than 0.25. In the case of RRHY, the enrichment ratio is reported as no more than 0.25. KPDF was tested, and the enrichment ratio was no more than 0.25. For SVAT, the enrichment ratio was 4.63. Variant GTKM has an enrichment ratio of no more than 0.25. QHRT gave an enrichment ratio of no more than 0.25. QTWE showed an enrichment ratio of 6.63. DFDK was tested, and the enrichment ratio was no more than 0.25. VLMS gave an enrichment ratio of no more than 0.25. THAG was tested, and the enrichment ratio was 3.58. Variant LEPN has an enrichment ratio of no more than 0.25. QWLR gave an enrichment ratio of no more than 0.25. PYYE gave an enrichment ratio of no more than 0.25. PQPE was tested, and the enrichment ratio was no more than 0.25. In the case of DCCC, the enrichment ratio is reported as no more than 0.25. AQWG showed an enrichment ratio of no more than 0.25. Work on LKAH yielded an enrichment ratio of 1.18. YAFL showed an enrichment ratio of no more than 0.25. For NMCM, the enrichment ratio was no more than 0.25. YEKC was tested, and the enrichment ratio was no more than 0.25. TVKP gave an enrichment ratio of no more than 0.25. Variant TADH has an enrichment ratio of 4.03. With HFYV the enrichment ratio was no more than 0.25. In the case of IDYK, the enrichment ratio is reported as no more than 0.25. Work on APRL yielded an enrichment ratio of no more than 0.25. Variant LRFC has an enrichment ratio of no more than 0.25. SHKD showed an enrichment ratio of no more than 0.25. With MRTV the enrichment ratio was no more than 0.25. In the case of SMPA, the enrichment ratio is reported as no more than 0.25. FHPR gave an enrichment ratio of no more than 0.25. NECR showed an enrichment ratio of no more than 0.25. DIMI gave an enrichment ratio of no more than 0.25. For ETMQ, the enrichment ratio was no more than 0.25. TTVY showed an enrichment ratio of no more than 0.25. In the case of PMFR, the enrichment ratio is reported as no more than 0.25. In the case of PSIR, the enrichment ratio is reported as no more than 0.25. Variant TVAY has an enrichment ratio of 0.466. ARNW showed an enrichment ratio of no more than 0.25. Work on HKHT yielded an enrichment ratio of no more than 0.25. YGHK showed an enrichment ratio of no more than 0.25. With VMRF the enrichment ratio was 0.322. NYIP showed an enrichment ratio of no more than 0.25. TGTY was tested, and the enrichment ratio was 6.78. With TRIS the enrichment ratio was no more than 0.25. HEPE was tested, and the enrichment ratio was no more than 0.25. RWSF showed an enrichment ratio of no more than 0.25. IWAI was tested, and the enrichment ratio was no more than 0.25. Work on REQP yielded an enrichment ratio of no more than 0.25. Work on RMMA yielded an enrichment ratio of 4.49. Variant YLMH has an enrichment ratio of no more than 0.25. With YKMV the enrichment ratio was no more than 0.25. In the case of WQSV, the enrichment ratio is reported as no more than 0.25. In the case of LPLV, the enrichment ratio is reported as no more than 0.25. With KVTP the enrichment ratio was no more than 0.25. STAP gave an enrichment ratio of no more than 0.25. Work on AGMQ yielded an enrichment ratio of 0.272. WNFW gave an enrichment ratio of no more than 0.25. ERLV showed an enrichment ratio of no more than 0.25. With IPRC the enrichment ratio was no more than 0.25. SRFT was tested, and the enrichment ratio was 0.273. In the case of VASS, the enrichment ratio is reported as no more than 0.25. RHQN was tested, and the enrichment ratio was no more than 0.25. Work on LMIT yielded an enrichment ratio of no more than 0.25. For FVVD, the enrichment ratio was no more than 0.25. In the case of IRKY, the enrichment ratio is reported as no more than 0.25. In the case of RKFY, the enrichment ratio is reported as no more than 0.25. RTNV showed an enrichment ratio of no more than 0.25. MMPY was tested, and the enrichment ratio was no more than 0.25. KVRQ gave an enrichment ratio of no more than 0.25. IENV was tested, and the enrichment ratio was no more than 0.25. HYGC showed an enrichment ratio of no more than 0.25. WDYC gave an enrichment ratio of no more than 0.25. Work on HGWR yielded an enrichment ratio of no more than 0.25. IAGH gave an enrichment ratio of no more than 0.25. APFQ showed an enrichment ratio of no more than 0.25. PMFP showed an enrichment ratio of no more than 0.25. EILP gave an enrichment ratio of no more than 0.25. NHDM gave an enrichment ratio of no more than 0.25. In the case of SKPN, the enrichment ratio is reported as no more than 0.25. WGMG gave an enrichment ratio of no more than 0.25. Variant RYYL has an enrichment ratio of no more than 0.25. Work on WSVM yielded an enrichment ratio of no more than 0.25. In the case of RHCD, the enrichment ratio is reported as no more than 0.25. For QNPG, the enrichment ratio was no more than 0.25. SPTQ showed an enrichment ratio of no more than 0.25. VTRG gave an enrichment ratio of no more than 0.25. MMMH showed an enrichment ratio of no more than 0.25. With SQSV the enrichment ratio was 11.9. SSEI showed an enrichment ratio of no more than 0.25. WPMM showed an enrichment ratio of no more than 0.25. AMML gave an enrichment ratio of 7.98. DFMF was tested, and the enrichment ratio was no more than 0.25. KVYL was tested, and the enrichment ratio was no more than 0.25. For YGID, the enrichment ratio was no more than 0.25. Variant QYQP has an enrichment ratio of no more than 0.25. Variant GAQR has an enrichment ratio of no more than 0.25. SVQS gave an enrichment ratio of no more than 0.25. With GFCV the enrichment ratio was no more than 0.25. IPMQ gave an enrichment ratio of no more than 0.25. Work on TYAG yielded an enrichment ratio of no more than 0.25. Variant RTRT has an enrichment ratio of no more than 0.25. LNWM gave an enrichment ratio of no more than 0.25. KPEG was tested, and the enrichment ratio was no more than 0.25. In the case of YFHG, the enrichment ratio is reported as no more than 0.25. In the case of KDCQ, the enrichment ratio is reported as no more than 0.25. In the case of HWIS, the enrichment ratio is reported as no more than 0.25. Work on VFVA yielded an enrichment ratio of no more than 0.25. With QRIA the enrichment ratio was no more than 0.25. AEYW showed an enrichment ratio of no more than 0.25. In the case of NMLG, the enrichment ratio is reported as no more than 0.25. Variant RSHM has an enrichment ratio of no more than 0.25. PFYS was tested, and the enrichment ratio was no more than 0.25. With NRHP the enrichment ratio was no more than 0.25. With RKAT the enrichment ratio was no more than 0.25. Work on PGSQ yielded an enrichment ratio of no more than 0.25. QVTL showed an enrichment ratio of no more than 0.25. DTLN gave an enrichment ratio of no more than 0.25. For QVMI, the enrichment ratio was no more than 0.25. Work on LTHV yielded an enrichment ratio of no more than 0.25. NKIM showed an enrichment ratio of no more than 0.25. Variant MEHL has an enrichment ratio of no more than 0.25. In the case of WFEI, the enrichment ratio is reported as no more than 0.25. Work on DRNA yielded an enrichment ratio of no more than 0.25. Variant NRGF has an enrichment ratio of no more than 0.25. For SANY, the enrichment ratio was no more than 0.25. PETQ showed an enrichment ratio of no more than 0.25. For QEKF, the enrichment ratio was no more than 0.25. Variant NVKR has an enrichment ratio of no more than 0.25. Variant KHMG has an enrichment ratio of no more than 0.25. Work on SVMM yielded an enrichment ratio of 4.93. HEGW was tested, and the enrichment ratio was no more than 0.25. Work on YVRM yielded an enrichment ratio of no more than 0.25. Work on ESDS yielded an enrichment ratio of no more than 0.25. Work on CLYQ yielded an enrichment ratio of no more than 0.25. Variant TWFQ has an enrichment ratio of no more than 0.25. AKGV was tested, and the enrichment ratio was 1.7. GVCT was tested, and the enrichment ratio was no more than 0.25. Variant PVSM has an enrichment ratio of no more than 0.25. Variant LGDT has an enrichment ratio of no more than 0.25. Work on RIAE yielded an enrichment ratio of no more than 0.25. Work on AQEC yielded an enrichment ratio of no more than 0.25. DTGH showed an enrichment ratio of no more than 0.25. With WQTT the enrichment ratio was no more than 0.25. In the case of HGPL, the enrichment ratio is reported as no more than 0.25. With ARDM the enrichment ratio was no more than 0.25. With TTHL the enrichment ratio was 11. LNKV showed an enrichment ratio of no more than 0.25. HNDW was tested, and the enrichment ratio was no more than 0.25. For PFMF, the enrichment ratio was no more than 0.25.

From a collection of fitness landscapes (doi:10.1126/science.1257360)
